Whole data set: some 33,000 sequences, median “E-score (-0.5 to 0.5)” near -0.035, cut for the highest 2% near 0.35. Some of the results follow.
Biological target: T1, Pdr3 (UniProt P33200)
T1 sequence: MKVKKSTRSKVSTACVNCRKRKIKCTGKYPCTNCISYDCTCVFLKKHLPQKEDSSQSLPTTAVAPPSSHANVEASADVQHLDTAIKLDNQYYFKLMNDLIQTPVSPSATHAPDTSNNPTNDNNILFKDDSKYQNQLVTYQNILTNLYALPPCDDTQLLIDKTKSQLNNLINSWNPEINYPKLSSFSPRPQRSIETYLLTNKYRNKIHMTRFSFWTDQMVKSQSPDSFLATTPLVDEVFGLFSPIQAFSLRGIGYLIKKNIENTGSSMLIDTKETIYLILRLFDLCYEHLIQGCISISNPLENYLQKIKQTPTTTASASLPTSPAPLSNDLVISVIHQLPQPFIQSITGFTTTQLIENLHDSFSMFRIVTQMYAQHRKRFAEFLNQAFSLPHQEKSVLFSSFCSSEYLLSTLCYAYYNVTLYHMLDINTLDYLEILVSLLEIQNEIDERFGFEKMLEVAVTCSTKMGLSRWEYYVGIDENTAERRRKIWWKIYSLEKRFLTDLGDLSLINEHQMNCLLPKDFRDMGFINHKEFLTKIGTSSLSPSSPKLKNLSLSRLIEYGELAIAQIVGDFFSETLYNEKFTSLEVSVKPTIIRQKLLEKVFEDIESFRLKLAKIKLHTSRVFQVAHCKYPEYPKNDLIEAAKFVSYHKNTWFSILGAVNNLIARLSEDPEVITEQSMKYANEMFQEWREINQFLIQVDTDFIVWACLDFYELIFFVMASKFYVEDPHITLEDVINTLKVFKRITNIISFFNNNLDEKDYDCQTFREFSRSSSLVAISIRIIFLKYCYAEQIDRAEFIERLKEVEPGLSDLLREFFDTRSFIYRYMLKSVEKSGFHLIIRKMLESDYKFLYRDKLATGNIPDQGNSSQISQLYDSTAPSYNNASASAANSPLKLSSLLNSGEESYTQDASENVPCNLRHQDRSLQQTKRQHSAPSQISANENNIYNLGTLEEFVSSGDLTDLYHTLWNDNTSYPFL
Assay: PBM E-score (8-mer binding enrichment) (E-score (-0.5 to 0.5)); higher = stronger / more preferred TF binding; most listed sequences are background and not binding sites
Settings: protein concentration: 200 nM; construct: GST-full length
Summary of the method: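 Bound GST-tagged yeast transcription factors, applied at about 100-200 nM to double-stranded universal all-10-mer Agilent arrays, were detected with fluorescent anti-GST. Scans were normalised with masliner. A modified Wilcoxon-Mann-Whitney statistic, the E-score, was assigned to each ungapped eight-base word pooled with its reverse complement by the Universal PBM Analysis Suite.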

Sequence	PBM E-score
CGGCGGTC	0.145
CCTCACTC	0.0974
AGGCTAAC	-0.177
GTGTTGTA	-0.144
CAACACCC	0.0249
CTCGCCCC	-0.0132
TAGTAAGA	-0.161
ATAATAAG	-0.073
CGCGGGAA	0.429
GTGAGTTA	-0.0179
AGTGATGA	-0.101
CTCGCAAG	-0.185
AGTATTAA	0.0469
CAACTGAA	-0.195
ATGGGGCA	-0.115
GGAGATCA	0.171
ACCCAGGC	-0.0296
CCGCCGAA	0.277
AACAAGTC	-0.0618
CTCGGGGA	0.219
AAGACATA	-0.131
CTCCAGAA	-0.204
ACATCTAT	0.0984
GGACATAA	0.0749
AGCACCCC	-0.188

Sequence	PBM E-score
AATTGGTG	-0.101
GCGTCCAC	0.0752
ACGGCGTC	0.151
CGTATAAC	-0.00777
GCTTAAAA	0.0175
CATTTCCA	-0.0296
ATACTGCC	0.176
AATGAGCG	0.165
CGATATCC	0.178
ATAGCTTG	-0.139
ACGCTGAT	-0.122
AACCGGCT	0.166
GTAAAATA	-0.107
CAGTGTCC	0.0389
CCACCTTA	-0.0834
GTCAGGAA	-0.149
CTAAGCAC	-0.0338
GACTAGGC	-0.267
CCCAATGA	-0.141
AAGGTGCT	-0.0758
TCGAAAGA	-0.144
GGATCTAC	-0.047
ATACAAGA	-0.167
AACTGACC	0.0452
CGATGTAA	-0.0743

Sequence	PBM E-score
CTCCATCC	-0.00997
AACAACCA	-0.0451
GGTATGGA	0.0648
ACGCGTAG	-0.0689
CATCACGG	0.152
GCAGCCGC	0.163
CTAAATTA	0.0482
GGTCGCCA	-0.103
AGTAGCGC	0.0616
GCTTGGAC	-0.164
AAAACTTG	-0.119
CACGGGAC	0.344
GCCCAAGC	0.0248
AATGCGAC	0.128
CTCCCTTA	-0.245
CCCATGTC	0.0536
CCATCCTA	-0.128
CGGGCCAC	0.244
TAGAATCA	-0.0941
ATTAACCC	0.123
ACTAGTGA	-0.201
GCTTATAC	-0.108
AGAGAGTA	-0.14
TCTGGAAA	-0.165
CCCAGGTA	-0.275

Sequence	PBM E-score
CCCCTCGA	0.102
CAATGGGC	-0.0836
CGTGGAGA	-0.0578
ACGATTCG	0.0555
GGCTTAAC	-0.216
ATGAGCGG	0.133
GAGGCAAC	-0.158
AAGGGATG	-0.143
TCCACCGA	-0.00664
CGCTGCTA	-0.098
GTTGGTAA	-0.164
ACGTCCAA	0.0097
AATAGCCA	-0.194
GTTGCAAA	0.0361
AATTAATC	-0.041
AGGGTCTC	-0.229
CTGCATGC	0.0292
CTCCGCGC	0.368
GATCTCAC	0.0301
CCGACTAA	0.181
ATCTATGC	-0.104
TCTCGTCA	-0.0279
AAGATCAA	-0.101
GACACTAA	0.063
CGCGATAG	0.0599

Sequence	PBM E-score
AAACGCAC	-0.0769
GAGAACTC	-0.0287
AACAGCCC	-0.00973
ATCGTACG	0.038
AGTGCCTC	-0.229
ACAGGTAG	-0.27
AGCAAGGA	-0.241
AAAGTCAT	-0.0971
AGCCATTG	-0.219
AGATCCAC	0.172
AATGTGAC	0.01
GAGCGGAA	0.415
CACGAGGG	-0.103
AGGACTAA	-0.0556
CAACGGCC	0.0545
AAGTGTAA	-0.21
ACTCACTG	-0.191
AACAACAA	-0.0952
AAACGCGC	0.0111
CGTGTGCA	-0.105
CACCCGTC	0.215
CAAGTGGG	-0.0554
AAATGACT	-0.234
GCAGGTTA	0.017
TACTGCTA	-0.0314

Sequence	PBM E-score
ATCTGCTC	-0.0987
AAACACAT	-0.0932
AGGGCCCT	-0.191
TGGAGCAA	-0.194
AGAATAGC	-0.0551
ATCCTCGG	0.3
AGTCGTAC	-0.236
CCCAATAA	-0.121
ACGAGGGG	-0.102
GCGTTGAC	-0.16
ATCAGACG	-0.00335
ACTGCGGG	0.14
ATTCTAAG	-0.189
AATGTCTC	0.0514
AACAATGA	0.0206
CCCTCCCC	0.218
GAAGAGGA	-0.21
ACTCTTCT	-0.176
CTAGCTCC	0.0468
AGGTCCGA	0.305
CCTCAAAC	-0.0238
CCACCCCG	0.165
AGGGACAG	-0.3
CGCCCAAC	0.119
CAATGCGA	-0.0915

Sequence	PBM E-score
ACCGCTGG	-0.0474
CCCGCGCC	0.265
AGAACGTA	-0.0336
AATTAGCG	0.129
ACTTCCAG	-0.108
AGTAGCCG	0.172
AGAGTAAT	0.133
TCATTGCA	-0.16
TCTCAACA	-0.0614
GAACTCGC	0.0969
CCCAGCTA	-0.22
GCTCATCC	0.139
AAACCGCC	0.169
CGCACGTA	-0.179
ACGCCCCC	0.0517
CAGACGTA	-0.192
GACCAAGA	-0.00634
TTCACAAA	0.0841
CAGGGATA	-0.193
ACCATTTA	-0.0145
CTGCGGTA	-0.0102
CCAATGCG	-0.0165
